# Assay results published in publication PMC4336329 (PLoS ONE, 2015).
# Out of some 310,000 compounds screened, about 2,200 (0.71%) showed an effect of 50% or more. Effects have a minus sign here. The list shows a part of the results.
# Molecular target: human ether-à-go-go-related gene (hERG) potassium channel (human, UniProt Q12809)
# Assay: primary screen, population patch clamp on CHO cells stably expressing hERG
# Chain of human ether-à-go-go-related gene (hERG) potassium channel (Q12809 whole entry, looked up): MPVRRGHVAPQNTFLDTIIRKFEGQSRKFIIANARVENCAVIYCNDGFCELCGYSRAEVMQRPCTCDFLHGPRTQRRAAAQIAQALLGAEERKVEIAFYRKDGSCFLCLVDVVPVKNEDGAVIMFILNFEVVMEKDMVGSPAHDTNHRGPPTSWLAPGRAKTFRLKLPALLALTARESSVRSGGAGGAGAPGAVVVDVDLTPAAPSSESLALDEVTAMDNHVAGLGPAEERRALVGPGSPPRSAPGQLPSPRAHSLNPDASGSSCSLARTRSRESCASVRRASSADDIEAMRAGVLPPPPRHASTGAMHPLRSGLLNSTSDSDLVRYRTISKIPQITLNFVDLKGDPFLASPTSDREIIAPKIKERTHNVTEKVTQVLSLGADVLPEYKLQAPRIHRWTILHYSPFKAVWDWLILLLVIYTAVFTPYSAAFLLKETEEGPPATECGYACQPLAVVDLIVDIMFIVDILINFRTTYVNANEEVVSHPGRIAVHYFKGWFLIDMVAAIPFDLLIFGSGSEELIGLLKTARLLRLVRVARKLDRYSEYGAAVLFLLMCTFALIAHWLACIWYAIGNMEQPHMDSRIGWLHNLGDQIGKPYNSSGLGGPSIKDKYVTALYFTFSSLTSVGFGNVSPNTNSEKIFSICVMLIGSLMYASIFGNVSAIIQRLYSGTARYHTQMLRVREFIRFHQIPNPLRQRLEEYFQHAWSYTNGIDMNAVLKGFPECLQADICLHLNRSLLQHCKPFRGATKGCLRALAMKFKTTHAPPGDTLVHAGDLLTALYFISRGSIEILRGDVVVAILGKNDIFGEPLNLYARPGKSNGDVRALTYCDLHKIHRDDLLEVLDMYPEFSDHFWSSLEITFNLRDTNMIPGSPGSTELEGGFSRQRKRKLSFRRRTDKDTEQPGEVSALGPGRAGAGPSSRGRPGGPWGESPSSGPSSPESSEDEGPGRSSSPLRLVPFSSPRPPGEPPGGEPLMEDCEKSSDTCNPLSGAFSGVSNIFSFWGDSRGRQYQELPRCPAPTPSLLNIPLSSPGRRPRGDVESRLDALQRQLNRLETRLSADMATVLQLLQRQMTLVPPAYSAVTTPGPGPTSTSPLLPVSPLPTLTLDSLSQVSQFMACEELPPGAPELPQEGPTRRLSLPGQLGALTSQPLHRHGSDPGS
row,SMILES,"hERG current change (%, negative = inhibition) at 1uM"
1,Cc1ccc(CC2CC(=O)N(CCc3ccc4c(c3)OCO4)C2=O)cc1 (stereo not shown),10.9%
2,Cc1ccc(S(=O)(=O)N2CCN(S(=O)(=O)c3c(C)n[nH]c3C)CC2)cc1C,17.2%
3,COc1ccc(OC)c(/C=C2\Oc3cc(OCC(=O)N4CC(O)C[C@H]4C(=O)O)ccc3C2=O)c1 (stereo partly shown),5.77%
4,Cc1ccc(-c2nnc(SCc3ccccc3F)o2)cc1,5.35%
5,Cc1nc(NC(=O)c2ccccc2)sc1-c1csc(Nc2ccc(Cl)cc2)n1,18.7%
6,O=C(NCCCO)/C(=C/c1ccc(-c2cccc([N+](=O)[O-])c2)o1)NC(=O)c1ccccc1,-4.53%
7,O=[N+]([O-])c1cc(Cl)cc(/C=N/Nc2nc3ccccc3s2)c1O,6.61%
8,Cc1[nH]c(=O)c(C(=O)c2ccccc2O)cc1C(=O)O,11.5%
9,CCC1CN(C(=O)N2CCC(C(=O)NCc3ccc(F)cc3)CC2)c2ccccc2O1 (stereo not shown),-1.15%
10,O=c1[nH]c(O)c(C=Nc2ccc(F)c(Cl)c2)c(=O)[nH]1,18%
11,CCN1CCN(C(=O)c2cccc(OC3CCN(S(C)(=O)=O)CC3)c2)[C@@H](C)C1=O,14.5%
12,CSc1ccc(NC(=O)N2CCC(C(=O)c3ccc(F)cc3)CC2)cc1,5%
13,CCNC(=O)C(=O)NCc1ccncc1,10.7%
14,Cc1cc(=O)[nH]c(N/N=C/c2c(C)nn(-c3ccccc3)c2Cl)n1,-5.06%
15,COc1ccc(-c2c(-c3ccc(OCC(=O)NN)cc3O)n[nH]c2C)cc1OC,15.8%
16,CCOc1c(Br)cc(CNc2ccc(N3CCN(C(C)=O)CC3)cc2)cc1OC,3.28%
17,COc1cc(C)ccc1OCC(=O)NC1CCCCCC1,19.7%
18,Cc1ccc(NC(=O)CN(C)C(=O)CNC(=O)c2sc3ccccc3c2Cl)cc1,9.23%
19,CCN(CC(=O)Nc1ccc(NC(C)=O)cc1)C(=O)Cc1ccccc1F,14.1%
20,COc1cc(OC)cc(C(=O)Nc2cc(C)nn2-c2ccccc2)c1,8.64%
21,CCCNC(=O)CCn1nc(-c2ccccc2)c2ccccc2c1=O,12.2%
22,N/C(=N\OC(=O)c1cccc2ccccc12)c1cccnc1,12.4%

row,SMILES,"hERG current change (%, negative = inhibition) at 1uM"
1,COc1ccc(CCNS(=O)(=O)c2c(C)[nH]c(C)c2C(=O)N2CCCCC2)cc1OC,13.5%
2,Cc1ccc(NC(=O)CSCC(=O)N2CCN(c3cccc(C(F)(F)F)c3)CC2)cc1,1.61%
3,N#Cc1cccc(NC(=O)CCC2CCCC2)c1,3.56%
4,CN1C(=O)N(C)C(c2cccc([N+](=O)[O-])c2)C2=C1CCCC2=O (stereo not shown),13.3%
5,CC(C)CCN1C(=O)c2ccccc2C1C(=O)NCc1cccnc1 (stereo not shown),-11%
6,O=C(NCCCn1ccnc1)c1cccc(S(=O)(=O)Nc2ccc(Br)cc2)c1,9.88%
7,CCCNC(=O)C(=O)c1cccn1-c1ccsc1C(=O)OC,8.16%
8,CCCCS(=O)CC(CS(=O)CCCC)OC(=O)c1ccc(C)cc1 (stereo not shown),-11.6%
9,Cc1ccc(NC(=O)CN2CCN(c3ccccn3)CC2)cc1S(=O)(=O)N(C)C,3.3%
10,CCOc1ccc(NS(=O)(=O)c2csc(C(N)=O)c2)cc1,16.3%
11,Cc1ccccc1NC(=O)CN1C(=O)c2cccnc2Oc2ccc(Cl)cc21,10.1%
12,CCc1sc(C(=O)N2CCc3cc(OC)c(OC)cc3C2CC(=O)O)cc1C (stereo not shown),6.74%
13,O=C(/C(=C(\[O-])c1ccccc1)[n+]1ccc2ccccc2c1)c1ccc([N+](=O)[O-])cc1,9.67%
14,CCOC(=O)c1ccc(NS(=O)(=O)c2cc(-c3nnnn3C(C)C)ccc2OC)cc1,-0.687%
15,CCOc1cc(NC(=S)N2CCC(C(N)=O)CC2)c(C(=O)OC)cc1OCC,10.7%
16,Cc1cc(C(=O)NCc2ccc3c(c2)OCO3)ccc1[N+](=O)[O-],12.9%
17,Cl.O=C1C2CCCN2C(=O)N1CCCN1CCN(c2cccc(Br)c2)CC1 (stereo not shown),9.06%
18,O=C(N/N=C\c1ccccc1)c1ccccc1-n1cccc1,4.28%
19,COc1ccc(C(=O)N2CCOC2CNC(=O)C(=O)NCc2ccc(Cl)cc2)cc1 (stereo not shown),3.22%
20,CCOc1ccc(/C=C/C(=O)Nc2ccccc2C(F)(F)F)cc1,13.9%
21,COc1ccc(NC2CCCN(C(=O)CCC(=O)c3ccc(F)cc3)C2)cc1 (stereo not shown),-9.95%
22,C=CCn1c(O)c(C(CC)=Nc2ccc(NC(C)=O)cc2)c(=O)[nH]c1=O,14%

row,SMILES,"hERG current change (%, negative = inhibition) at 1uM"
1,CCCCc1ccc(NC(=O)CN2C(=O)C3CCCCC3C2=O)cc1 (stereo not shown),8.09%
2,COc1cc(SC)ccc1C(=O)OCC(=O)NC1CC1,9.68%
3,CC(=O)OCC(=O)[C@@]1(O)CC[C@H]2[C@@H]3CCC4=CC(=O)C=C[C@]4(C)[C@H]3[C@@H](O)C[C@@]21C,12.4%
4,Cc1nc(C)c(C(=O)N/N=C/c2cn(C)c3ccccc23)s1,4.89%
5,O=C(COC(=O)c1cc(S(=O)(=O)N2CCCC2)ccc1O)Nc1ccc(S(=O)(=O)N2CCOCC2)cc1,6.22%
6,O=C(O)C1C2C=CC(C2)C1C(=O)Nc1ccc(C(=O)N2CCCCC2)c(Cl)c1 (stereo not shown),9.87%
7,COC(=O)C1=C(C(=O)OC)[C@@H]2N(C)c3ccc(OC)cc3[C@@]23C[C@@H](C(=O)OC)N(C(=O)NC2CCCCC2)C3=N1,12.3%
8,O=C1Cc2cc(S(=O)(=O)NCc3ccccc3Cl)cc3c2N1CCC3,16.2%
9,CC(C)CN(C(=O)CN1CC=C(c2ccccc2)CC1)c1c(N)n(CC(C)C)c(=O)[nH]c1=O,11.5%
10,COc1ccc(OC)c(NC(=S)NCCSc2ccc(C)cc2)c1,1.61%
11,CCC(Nc1ccc(OC)cc1)C(=O)N/N=C/c1ccc([N+](=O)[O-])cc1 (stereo not shown),-6.38%
12,COc1ccc(-c2nc3c(c(SCC(=O)Nc4cccc(O)c4)n2)Cc2c(CO)cnc(C)c2O3)cc1,12.5%
13,COc1ccc(OC)c(NC(=O)COC(=O)c2nc(Cl)ccc2Cl)c1,23.1%
14,O=S(=O)(CCc1nc2ccccc2[nH]1)c1ccc(Cl)cc1,7.75%
15,COc1ccc(CNC(=O)/C=C/c2cc([N+](=O)[O-])ccc2OC(F)F)cc1,18%
16,COc1ccc2cc3cc(C(=O)N4CCCCCC4)oc3nc2c1,11.2%
17,COC(=O)c1c(C)oc2ccc(NS(=O)(=O)c3cccs3)cc12,5.76%
18,O=C(Nc1ccc2nc(-c3ccco3)c(-c3ccco3)nc2c1)N1CCCCCC1,14.1%
19,Nc1nnc(SCc2cccc(C(F)(F)F)c2)s1,7.59%
20,COc1ccc2[nH]c3c(c2c1)CCN1C(=O)N([C@@H](C)C(=O)NC2CCCC2)C(=O)[C@]31C,0.767%
21,CCOc1ccc(NS(=O)(=O)c2ccc(OCC(=O)N3CCCC3)cc2)cc1,8.88%
22,Cc1ccc(NC(=O)N2CCN(C)CC2)cc1NC(=O)N1CCN(C)CC1,11%

row,SMILES,"hERG current change (%, negative = inhibition) at 1uM"
1,O=C(O)c1ccc(Cl)c2c1C1C=CCC1C(c1ccccn1)N2 (stereo not shown),11%
2,COc1ccccc1CNC(=O)c1cccc(NC(=O)c2ccccc2)c1,-2.98%
3,COc1ccc(-c2nnc(SCC(=O)c3cc(C)n(Cc4cccs4)c3C)o2)cc1,5.24%
4,CS(=O)(=O)Nc1ccc(-c2cn3c(n2)SCC3)cc1,14.5%
5,CCCOc1ccc(C(C)=O)cc1CC(C(N)=O)C(N)=O,7.15%
6,COC(=O)c1nnn(-c2nc(N(C)C)nc(N(C)C)n2)c1C,-5.76%
7,O=C1CSC(c2cccc([N+](=O)[O-])c2)N1C1CC2CCC1C2 (stereo not shown),13.3%
8,Cc1cccc(NC(=O)CC2C(=O)NC3CCCCC3N2C(=O)c2ccccc2Cl)c1 (stereo not shown),12.9%
9,Cc1ccccc1S(=O)(=O)NNC(=O)C(=O)NNc1ccccn1,11.9%
10,Cc1cc(C(C)(C)C)cc(C)c1COC(=O)CN1C(=O)NC2(CCCC2)C1=O,4.65%
11,CCOc1ccccc1NC(=O)COC(=O)CCOc1cc(C)ccc1C,6.44%
12,Cc1cccc(OCC2=N/C(=C\N(C)C)C(=O)O2)c1,5.7%
13,CCN1CCN(c2cc(C)c3cc(NC(=O)c4cc(OC)cc(OC)c4)ccc3n2)CC1,10.1%
14,NC(=S)NC1CC2CC1C1C=CCC21 (stereo not shown),14%
15,COc1cc(/C=C/C(=O)N2CCOCC2)ccc1OCc1ccccc1,-0.192%
16,Cc1cccc(C)c1-n1c(C)cc(/C=C2\NC(=O)NC2=O)c1C,-4.15%
17,CCc1ccc(CN2CCC(C(=O)Nc3ccc(-n4nc(C)cc4C)cc3)CC2)o1,-4.73%
18,Cc1cccc(NC(=O)CCc2ccc(S(=O)(=O)NC3CCCCC3)cc2)c1,13.5%
19,CCOCCCNC(=O)CC1Oc2ccc(C)cc2NC1=O (stereo not shown),1.9%
